Whole data set: some 33,000 sequences, median “E-score (-0.5 to 0.5)” near -0.041, cut for the highest 2% near 0.37. Some of the results follow.
Target: T1, Ecm22 (UniProt Q05958)
T1 sequence: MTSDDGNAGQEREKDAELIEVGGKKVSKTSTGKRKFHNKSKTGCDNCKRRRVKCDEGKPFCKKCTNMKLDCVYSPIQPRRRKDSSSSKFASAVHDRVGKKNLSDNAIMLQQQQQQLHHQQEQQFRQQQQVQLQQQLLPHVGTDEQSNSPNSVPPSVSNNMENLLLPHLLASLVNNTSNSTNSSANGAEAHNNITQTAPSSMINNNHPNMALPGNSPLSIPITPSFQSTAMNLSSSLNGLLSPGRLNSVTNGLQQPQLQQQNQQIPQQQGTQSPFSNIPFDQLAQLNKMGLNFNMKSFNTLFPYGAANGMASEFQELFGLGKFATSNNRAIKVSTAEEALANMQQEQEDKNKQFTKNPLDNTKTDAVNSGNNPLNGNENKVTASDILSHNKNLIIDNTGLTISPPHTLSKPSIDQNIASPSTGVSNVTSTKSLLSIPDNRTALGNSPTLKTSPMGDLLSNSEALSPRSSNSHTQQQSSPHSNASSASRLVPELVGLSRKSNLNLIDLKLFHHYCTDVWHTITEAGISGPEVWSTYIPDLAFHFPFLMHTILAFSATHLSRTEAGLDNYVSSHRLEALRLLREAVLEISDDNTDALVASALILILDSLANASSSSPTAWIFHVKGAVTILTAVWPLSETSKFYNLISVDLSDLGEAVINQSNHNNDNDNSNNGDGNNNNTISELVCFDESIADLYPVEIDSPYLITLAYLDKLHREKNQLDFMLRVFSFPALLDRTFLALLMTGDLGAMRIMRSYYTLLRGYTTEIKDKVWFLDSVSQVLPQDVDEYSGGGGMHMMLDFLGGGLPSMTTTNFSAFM
Experiment: PBM E-score (8-mer binding enrichment) (E-score (-0.5 to 0.5)); higher = stronger / more preferred TF binding; most listed sequences are background and not binding sites
Details: protein concentration: 200 nM; construct: GST-full length
Method in brief: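 Universal all-10-mer Agilent arrays, double-stranded by primer extension on fresh or once-stripped slides, were probed with about 100-200 nM GST-tagged yeast transcription factors made by PURExpress. Fluorescent anti-GST detected bound protein, and masliner normalised the scans. E-scores from the Universal PBM Analysis Suite were given to each ungapped eight-base word pooled with its reverse complement.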

Sequence	PBM E-score
CCGGACGG	-0.168
CGCCCTTA	-0.175
CACTGATC	-0.258
CCTGAAAC	0.0188
CATATTCA	0.0456
AGGGTGAA	-0.0566
CGGCATGA	0.109
CTTTACCC	0.0391
ACAACCGG	-0.0513
GACGTCTA	-0.23
CATTTGCC	-0.175
ATACTGTA	0.177
TTCTGAAA	-0.196
AGGCGCAC	-0.0776
CGAGTACC	0.21
CACTTCAA	-0.139
AATGATAC	0.186
GGAGGTTA	-0.135
AGAAGGGA	-0.396
GGAAGGGA	-0.172
ACGGCCGC	0.186
AAACAACT	-0.152
CACCTCCC	-0.215
AAATTAGC	0.172
CGGTCAGC	-0.0305

Sequence	PBM E-score
AAAGAGGA	-0.13
GCCGAGCA	-0.0367
GTATATCA	0.276
AGGTAGCA	-0.181
CGAAGCCG	0.053
ACATGCTA	-0.144
CTAATTAC	-0.0138
GGTAATAA	0.121
AGAGTCAA	-0.31
AGCAATAT	-0.0272
CTTGTGGA	-0.292
ATGTACGG	0.365
CATGGGAA	-0.00264
AAGGAGAC	-0.336
CGCGTTTA	0.342
CGAAGTCG	0.254
ACCATAGG	-0.0448
GAGTTAGA	-0.157
AATAAAAA	-0.00527
GATGGTAA	-0.0663
GACAGAGA	0.0187
CGACGTCG	0.281
AGTTGGCG	-0.0829
GATTATCA	0.0403
CCGATGCG	0.0233

Sequence	PBM E-score
GGCTTGGA	-0.243
CGGTACGA	0.492
ACCCATTA	0.124
GCGTATCC	0.142
GTGCTTGA	0.0697
CGAACACG	0.183
CCCACGCG	-0.157
AAGGGGCT	-0.186
CAAGTGTG	-0.263
AATTGCCG	0.0407
ACTCCCCG	0.0543
GGCGGACA	-0.0355
GCCAGTTA	0.0769
AGTCGTAT	0.46
CTTAAATA	-0.153
CGACCCTA	0.0571
GGTGACCA	-0.103
CCTAATCC	-0.275
AATAAATC	-0.0573
GATAAGGC	-0.0542
AAAAGGCG	-0.052
GAGTTGAA	0.04
GTCCCCTA	-0.313
CATACGAA	0.451
CTTCCCGC	0.0351

Sequence	PBM E-score
AGTGAACT	-0.132
ACCCATCA	-0.0127
AGGGCCCA	-0.227
AACTGGCT	-0.262
CGAAGGCC	0.0747
AGAGCGGG	-0.173
CAGAGCAC	-0.061
GGGGGCAC	-0.232
GATCTGGC	-0.0579
ATCGGTGG	0.0574
ATCCGATG	0.176
ATTCACAA	-0.156
ACTAAAGG	-0.092
CCCCTTCC	-0.299
CGCACGCG	0.0181
GAATGGGC	-0.0261
CGCAAAAG	-0.0689
TATTGCAA	0.112
CGTACCTA	0.441
AGGGGAAT	-0.219
GGAAGCAC	0.0273
CATATCCC	-0.036
CGACTCAC	-0.0226
CTTAGAGA	-0.0992
CTAGAGAA	-0.00522

Sequence	PBM E-score
AACCTCAG	-0.0346
TACCAGGA	0.0186
AAGCAAGG	-0.0358
ATGTAGCA	-0.0443
TAAAGTCA	-0.0121
CAAAAGAC	-0.154
CAAGGCCC	-0.184
AGAATCGG	0.0286
ACTATATG	0.16
TTAGTGAA	0.0168
GAGGATGC	-0.0188
GATGCCCA	-0.0888
CTCGCTCA	0.358
GCATATAA	0.195
ATCGGATA	0.301
CTGCCTTA	-0.302
CACATTGC	-0.235
CTGGCGCC	-0.0799
CACCCTAC	-0.0599
CGTGATCC	-0.153
CTGAGCTC	-0.2
CCCTAAAG	-0.123
CGGGGAGA	-0.115
CGTAGAAG	0.214
GGTTTGAC	0.115

Sequence	PBM E-score
ATACGTGG	0.196
TAAATCCA	0.13
CTTCATTC	-0.0928
ATATCTGG	-0.189
ACTACGAC	0.329
CTCCGCAG	-0.0934
AAAATCTC	-0.0615
CTTCGAGC	-0.0794
CTGACCAC	-0.228
GCCAAGAC	-0.218
ATTCGCCA	-0.0226
TATTGTAA	-0.0855
TCACCTCA	-0.159
CGGCTCAA	-0.217
AGGCCTCC	-0.206
ATTGGCTG	-0.227
GGATTCAC	-0.106
GCTAACCA	-0.146
AGCCCTAG	-0.334
CATTAAAA	-0.00173
ATGCTAAT	0.0728
CGTGATGA	-0.0666
GAGCTTAC	0.00868
AAGTCGCT	0.053
GGAGGCCC	-0.227

Sequence	PBM E-score
CGCCGGGC	-0.093
CCCGGGGC	-0.0902
ATGTACAC	-0.00463
CACGCGGA	-0.00262
GAACCATC	0.0147
CCCTGACG	-0.253
GACCAAAA	0.156
GCGGATAA	-0.007
AACTCAGT	-0.281
AACTACAC	0.0816
CCGCCAAA	0.0585
CCACCCAG	-0.232
TACACAAA	0.212
GTATGGAA	0.168
GATAGTCA	0.0388
CCTGTGAA	0.0461
GCTCTTAA	0.0663
GGGGTAGA	-0.206
AATAGCTA	-0.0132
AAAGCATA	0.0772
ATCTATAA	0.129
GGGCTCCA	-0.282

Source: the supplement of paper PMC3334620
